According to PubChem BioAssay AID504332 (National Center for Advancing Translational Sciences (NCATS), 2011):
Hit rate of the full screen: of about 350,000 compounds, about 31,000 (8.9%) were called active. The inconclusive results got no clear call from the source; some entries with a clear call stand among them for comparison. Calls follow the shape of the dose curve; as a rule, active = well fitted inhibition curve with a large enough effect; inconclusive = small, poorly fitted or top-dose-only effect; inactive = no such curve, though single readings can be large or run the other way. A potency beside an inconclusive call is a rough fit, not a confirmed value. Where a SMILES comes first, the peptide text is derived from it. [ ]: non-standard residue; d: D form. The star is where a group is joined. Tic = O=C(O)[C@@H]1Cc2ccccc2CN1; Boc = CC(C)(C)OC(=O)*

Each molecule was assayed against Histone-lysine N-methyltransferase EHMT2 (Homo sapiens) (UniProt Q96KQ7) (assay: qHTS Assay for Inhibitors of Histone Lysine Methyltransferase G9a). Settings: G9a H3K9 monomethylation, AlphaScreen, 2 h; activity, negative = inhibition: at 59 µM (top of the series) unless noted.
Sequence of UniProt Q96KQ7 (Q96KQ7 whole entry, looked up): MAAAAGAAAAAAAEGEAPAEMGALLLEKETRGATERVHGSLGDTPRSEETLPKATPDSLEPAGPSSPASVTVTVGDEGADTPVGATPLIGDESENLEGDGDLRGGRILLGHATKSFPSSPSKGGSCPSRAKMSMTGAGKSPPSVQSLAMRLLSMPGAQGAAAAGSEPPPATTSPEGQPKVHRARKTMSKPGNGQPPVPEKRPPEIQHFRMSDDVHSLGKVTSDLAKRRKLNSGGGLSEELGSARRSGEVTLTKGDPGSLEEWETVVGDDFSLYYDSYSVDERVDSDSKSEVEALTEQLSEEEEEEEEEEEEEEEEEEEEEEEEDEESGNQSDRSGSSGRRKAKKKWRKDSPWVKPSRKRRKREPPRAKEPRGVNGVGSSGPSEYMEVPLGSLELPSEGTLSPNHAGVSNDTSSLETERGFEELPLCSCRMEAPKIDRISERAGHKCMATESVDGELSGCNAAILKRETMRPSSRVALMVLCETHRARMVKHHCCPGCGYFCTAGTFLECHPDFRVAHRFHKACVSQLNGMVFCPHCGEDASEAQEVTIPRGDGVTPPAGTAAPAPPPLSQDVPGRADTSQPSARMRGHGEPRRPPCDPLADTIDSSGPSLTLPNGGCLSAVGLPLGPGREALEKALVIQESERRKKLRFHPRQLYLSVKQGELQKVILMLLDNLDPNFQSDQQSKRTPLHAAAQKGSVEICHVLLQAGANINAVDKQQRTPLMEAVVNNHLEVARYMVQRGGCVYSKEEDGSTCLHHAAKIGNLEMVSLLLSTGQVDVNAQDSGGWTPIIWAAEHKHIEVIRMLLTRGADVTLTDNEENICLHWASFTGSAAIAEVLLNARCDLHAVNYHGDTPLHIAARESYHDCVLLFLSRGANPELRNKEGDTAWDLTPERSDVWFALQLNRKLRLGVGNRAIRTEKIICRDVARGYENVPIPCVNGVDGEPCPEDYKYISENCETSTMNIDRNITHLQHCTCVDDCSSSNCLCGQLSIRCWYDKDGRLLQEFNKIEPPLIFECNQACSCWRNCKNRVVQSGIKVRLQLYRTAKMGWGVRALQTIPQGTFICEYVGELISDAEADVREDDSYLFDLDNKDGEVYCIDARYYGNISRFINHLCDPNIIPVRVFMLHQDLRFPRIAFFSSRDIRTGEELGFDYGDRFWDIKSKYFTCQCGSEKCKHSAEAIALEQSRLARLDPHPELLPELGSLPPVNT
How it was run: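 Enzyme 20 nM + cpd, 15 min RT; add b-H3K9 pep 500 nM / SAM 20 uM; 2 h RT; anti-H3K9me1 Ab 0.5 ug/mL + SA donor / anti-rabbit acceptor beads 20 ug/mL each, 10 min; AlphaScreen read.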
% is scaled to controls: 0 for no effect and ±100 for the full control effect; potency is read from the fitted curve at half-maximal effect; tags tell the direction and shape of the fitted curve.
Also: nearly all actives have a fitted effect of over 75% in size.

Question: Which Potency does the source give for `Cc1cnc2c(c1SCC(=O)NCc1ccc(F)cc1)c(=O)n(C)c(=O)n2C` here?
Answer: The Potency was “inactive”.

Question: `COc1ccccc1/C=C1\SC(=S)N(C(C(=O)O)c2ccccc2)C1=O` (stereo not drawn) was tested. Which Potency did it give?
Answer: Its Potency is inconclusive: 50.1 µM [inhibitor, partial curve, poor fit].

Question: With `O=C(CCN1C(=O)C2CC=CCC2C1=O)Nc1ccc(S(=O)(=O)N2CCCCC2)cc1` (stereo not drawn) as the molecule, how does the Potency read?
Answer: The Potency was inconclusive: 79.4 µM [inhibitor, partial curve].

Question: How did the Potency turn out when `COc1cc(-c2nnn(CC(=O)NCc3ccccc3)n2)cc(OC)c1OC` was run?
Answer: Its Potency is “inactive”.

Question: With `O=S(=O)(Nc1ccc(N2CCCCC2)cc1)c1ccccc1` as the molecule, how does the Potency read?
Answer: Its Potency is inconclusive: 6.31 µM [inhibitor, full curve, poor fit].

Question: With `COc1ccc(-c2nc(C(F)(F)F)c(OC)o2)cc1OC` as the molecule, how does the Potency read?
Answer: The Potency was inconclusive: 0.794 µM [inhibitor, partial curve, poor fit].

Question: For `CC(NCCCOc1cccc2ccccc12)c1ccccc1` (stereo not drawn), which Potency is on record?
Answer: Its Potency is active: 11.2 µM.

Question: How did the Potency turn out when `S=C(N/N=C1\CCc2ccccc21)NC1CCCCC1` was run?
Answer: The Potency was inconclusive: 44.7 µM [inhibitor, partial curve].

Question: Which Potency does the source give for `O=C(COc1cccc2ccccc12)NNC(=O)Nc1ccccc1` here?
Answer: Its Potency is inconclusive: 100 µM [inhibitor, single point].

Question: How did the Potency turn out when `CC(C)(C)n1nnnc1C(c1ccc(Cl)cc1)N1CCCc2ccccc21` (stereo not drawn) was run?
Answer: Its Potency is inconclusive: 35.5 µM [inhibitor, partial curve, poor fit].

Question: Which Potency does the source give for `CC(=O)c1ccc(-c2ccc(C(=O)N(C)Cc3nc4ccccc4c(=O)[nH]3)o2)cc1` here?
Answer: Its Potency is inconclusive: 6.31 µM [inhibitor, single point].

Question: For `O=C(C(c1ccccc1)c1ccccc1)N1CCN(Cc2ccccn2)CC1`, which Potency is on record?
Answer: Its Potency is inconclusive: 3.55 µM [inhibitor, partial curve, poor fit].

Question: Which Potency does the source give for `O=C(c1ccco1)N1CCN(C(=O)c2cc(-c3ccccn3)nc3ccccc23)CC1` here?
Answer: Its Potency is inconclusive: 39.8 µM [inhibitor, single point].

Question: How did the Potency turn out when `CCn1cc(CN2CCCC(CNS(=O)(=O)c3ccc(OC)cc3)C2)cn1` (stereo not drawn) was run?
Answer: Its Potency is inconclusive: 44.7 µM [inhibitor, partial curve, poor fit].

Question: For `CCOC(=O)c1sc(NC(=O)C2CCCO2)c(C(=O)OCC)c1C` (stereo not drawn), which activity, negative = inhibition is on record?
Answer: The activity, negative = inhibition was inactive: -31.9% [at 12.7 µM].

Question: Which Potency does the source give for `COc1cc(/C=N/NC(=S)NC2CC3C=CC2C3)cc(OC)c1OC` (stereo not drawn) here?
Answer: Its Potency is inconclusive: 39.8 µM [inhibitor, full curve, poor fit].

Question: For `O=C(CC1C(=O)NCCN1Cc1ccccc1C(F)(F)F)NCCn1cccn1` (stereo not drawn), which Potency is on record?
Answer: The Potency was active: 35.5 µM.

Question: How did the Potency turn out when `CC(C)(C)c1ccc(OCC(=O)NC(Cc2c[nH]c3ccccc23)C(=O)O)cc1` (stereo not drawn) was run?
Answer: Its Potency is inconclusive: 22.4 µM [inhibitor, partial curve, poor fit].

Question: `COCCN1C(=O)N[C@@H](c2ccc(Br)cc2)C(C(C)=O)=C1C` was tested. Which Potency did it give?
Answer: Its Potency is “inactive”.

Question: How did the Potency turn out when `Cc1ccc(Nc2c(-c3ccccc3O)nc3cc(C)ccn23)cc1` was run?
Answer: Its Potency is inconclusive: 3.16 µM [inhibitor, partial curve, poor fit].

Question: `O=C(COC(=O)c1cncc(Br)c1)Nc1ccc(N2CCCCC2)cc1` was tested. Which Potency did it give?
Answer: Its Potency is inconclusive: 3.55 µM [inhibitor, single point].

Question: `O=C1CC(N2CCSCC2)C(=O)N1c1ccccc1` (stereo not drawn) was tested. Which Potency did it give?
Answer: Its Potency is inconclusive: 79.4 µM [inhibitor, single point].

Question: With `Cc1cc(C(=O)CSc2nc3ccccc3[nH]2)c(C)n1CC1CCCO1` (stereo not drawn) as the molecule, how does the Potency read?
Answer: Its Potency is inconclusive: 56.2 µM [inhibitor, partial curve, poor fit].

Question: Which Potency does the source give for `COc1ccc(NC(=O)C(C)N2C(=O)c3ccccc3S2(=O)=O)c(OC)c1` (stereo not drawn) here?
Answer: The Potency was inconclusive: 56.2 µM [inhibitor, partial curve, poor fit].

Question: For `Cc1ccc(NS(=O)(=O)c2ccc3c(c2)CCN3C(=O)CCC(=O)O)cc1Cl`, which Potency is on record?
Answer: The Potency was inconclusive: 79.4 µM [inhibitor, partial curve].

Question: `COc1ccc(OC)c(S(=O)(=O)NCC(c2ccc(F)cc2)N2CCN(C)CC2)c1` (stereo not drawn) was tested. Which Potency did it give?
Answer: The Potency was inconclusive: 89.1 µM [inhibitor, single point].

Question: `Cc1ccc(NC(=O)c2ccc(COc3ccc4c(c3)CCC4)cc2)c(C)c1` was tested. Which Potency did it give?
Answer: The Potency was “inactive”.

Question: How did the Potency turn out when `CCCOc1ccc(C(=O)Nc2ccc3c(c2)OCCO3)cc1` was run?
Answer: Its Potency is “inactive”.

Question: How did the Potency turn out when `COc1ccc2oc(C(=O)NCc3ccco3)c(C)c2c1` was run?
Answer: The Potency was “inactive”.

Question: For `Cc1nnc(SCC(=O)NC23CC4CC(CC(C4)C2)C3)s1`, which Potency is on record?
Answer: Its Potency is inconclusive: 0.562 µM [inhibitor, partial curve, poor fit].

Question: Which Potency does the source give for `COc1ccc(-c2ccc(SCC(=O)c3ccc(F)cc3)nn2)cc1OC` here?
Answer: Its Potency is active: 35.5 µM.

Question: How did the Potency turn out when `CCOc1ccc(NC(=O)CN2CCN(CC(=O)Nc3ccc(OC)cc3)CC2)cc1` was run?
Answer: The Potency was “inactive”.

Question: For `COc1cc(C(=O)O/N=C2\C=CC(=O)C(C)=C2)cc(OC)c1OC`, which Potency is on record?
Answer: Its Potency is active: 14.1 µM.

Question: For `CCOC(=O)c1cnc2nc(COc3ccccc3)[nH]n2c1=O`, which activity, negative = inhibition is on record?
Answer: Its activity, negative = inhibition is inconclusive: -61% [inhibitor].

Question: For `CCn1cc(C(=O)NCc2ccc(C)o2)c2cc(OC)c(OC)cc2c1=O`, which activity, negative = inhibition is on record?
Answer: Its activity, negative = inhibition is inconclusive: -101% [inhibitor].

Question: With `Cc1ccc2nc(N(CCCN(C)C)C(=O)CCc3ccccc3)sc2c1` as the molecule, how does the Potency read?
Answer: Its Potency is inconclusive: 56.2 µM [inhibitor, partial curve, poor fit].

Question: How did the Potency turn out when `CC1Oc2ccccc2N(CC(=O)N2CCCC2)C1=O` (stereo not drawn) was run?
Answer: Its Potency is inconclusive: 39.8 µM [inhibitor, single point].

Question: With `O=C(/C=C/c1ccco1)OCc1nnc(-c2ccccc2)o1` as the molecule, how does the Potency read?
Answer: The Potency was active: 50.1 µM.

Question: Which Potency does the source give for `O=C(NCCc1ccccc1)c1cc2sccc2n1Cc1ccc(F)cc1` here?
Answer: The Potency was “inactive”.

Question: How did the Potency turn out when `CO/N=C(/C(=O)N[C@@H]1C(=O)N2C(C(=O)O)=C(CSc3cnns3)CS[C@H]12)c1csc(N)n1` was run?
Answer: The Potency was inconclusive: 2.24 µM [inhibitor, partial curve, poor fit].

Question: With `CCOC(=O)c1ccc(-c2csc(NC(=O)CN3CCC(C)CC3)n2)cc1` as the molecule, how does the Potency read?
Answer: Its Potency is inconclusive: 11.2 µM [inhibitor, partial curve, poor fit].

Question: With `Cc1cccc(NC(=S)NC2CC3CCCC(C2)N3Cc2cccs2)c1` (stereo not drawn) as the molecule, how does the Potency read?
Answer: The Potency was inconclusive: 8.91 µM [inhibitor, single point].

Question: For `COC(=O)Nc1ccc(OCc2ccccc2)cc1`, which activity, negative = inhibition is on record?
Answer: Its activity, negative = inhibition is inactive: -15.6% [at 12.7 µM].

Question: For `COC(=O)c1cccc(C(=O)N2CCC(CO)(Cc3ccccc3Cl)CC2)c1`, which Potency is on record?
Answer: The Potency was inconclusive: 89.1 µM [inhibitor, single point].

Question: For `COC(=O)c1c(SCC(=O)Nc2cc(F)ccc2F)[nH]c2ccc(C)cc2c1=O`, which Potency is on record?
Answer: The Potency was “inactive”.

Question: How did the Potency turn out when `COc1ccccc1Nc1nc(-c2sc(NC(=O)C(C)(C)C)nc2C)cs1` was run?
Answer: The Potency was inconclusive: 8.91 µM [inhibitor, partial curve, poor fit].

Question: How did the Potency turn out when `O=C(CCN1CCOCC1)c1ccc2c(c1)OCCO2` was run?
Answer: The Potency was active: 8.91 µM.

Question: For `CCC(C(=O)O)n1c(C(F)(F)F)nc2ccccc21` (stereo not drawn), which activity, negative = inhibition is on record?
Answer: Its activity, negative = inhibition is inactive: 0.286% [at 12.7 µM].

Question: How did the Potency turn out when `CCn1cc(C(=O)NCC2CCCO2)c(=O)c2cc(S(=O)(=O)N(C)C)ccc21` (stereo not drawn) was run?
Answer: Its Potency is “inactive”.

Question: For `S=C(c1cn(Cc2ccccc2)c2ccccc12)N1CCOCC1`, which Potency is on record?
Answer: The Potency was active: 25.1 µM.

Question: `O=C1CN(C(=O)CN2CCOCC2)C(c2ccccc2)c2cc(Br)ccc2N1` (stereo not drawn) was tested. Which Potency did it give?
Answer: Its Potency is inconclusive: 89.1 µM [inhibitor, single point].

Question: With `COc1cc2c(cc1OC)-c1cc(NC3CC3)nc(=O)n1CC2` as the molecule, how does the activity, negative = inhibition read?
Answer: The activity, negative = inhibition was inactive: 7.85% [at 2.33 µM].

Question: `CNC(=O)c1c(NC(=O)c2ccc(S(=O)(=O)N3CCCC(C)C3)cc2)sc2c1CCC2` (stereo not drawn) was tested. Which Potency did it give?
Answer: The Potency was “inactive”.

Question: Which Potency does the source give for `Cc1cccnc1NC(=O)c1ccc(S(=O)(=O)N2CC(C)OC(C)C2)cc1` (stereo not drawn) here?
Answer: The Potency was inconclusive: 89.1 µM [inhibitor, single point].

Question: For `CSc1cccc(NC(=O)C(c2ccccc2)N2Cc3ccccc3C2=O)c1` (stereo not drawn), which Potency is on record?
Answer: The Potency was inconclusive: 28.2 µM [inhibitor, partial curve, poor fit].

Question: Which Potency does the source give for `CCN1CCN(c2ccc(S(=O)(=O)N3CCCCC3)cc2NC(=O)c2cccc(F)c2)CC1` here?
Answer: The Potency was inconclusive: 44.7 µM [inhibitor, partial curve].

Question: For `C=CCOc1ccccc1/C=N/NC(=O)Cc1ccccc1`, which activity, negative = inhibition is on record?
Answer: Its activity, negative = inhibition is inactive: -1.48% [at 0.501 µM].

Question: How did the Potency turn out when `CCN1CCN(c2ncnc3c2sc2nc(N4CCOCC4)c4c(c23)CCC4)CC1` was run?
Answer: Its Potency is inconclusive: 2.82 µM [inhibitor, partial curve, poor fit].

Question: Which Potency does the source give for `Cc1[nH]nc2c1C(c1cn[nH]c1-c1ccc(F)cc1)C(C#N)=C(N)O2` (stereo not drawn) here?
Answer: Its Potency is inconclusive: 50.1 µM [inhibitor, partial curve].

Question: Which activity, negative = inhibition does the source give for `O=C(C1=C[C@@H](C2CCCCC2)C[C@@H](OCCCCO)O1)N1CCN(Cc2ccccc2)CC1` here?
Answer: Its activity, negative = inhibition is inconclusive: -71% [inhibitor].

Question: How did the Potency turn out when `Cc1cc(C)cc(NC(=O)Nc2cccs2)c1` was run?
Answer: The Potency was inconclusive: 35.5 µM [inhibitor, single point].

Question: `Cc1nnc(SCC(=O)NNC(=O)c2ccc(Cl)cc2)n1CC1CCCO1` (stereo not drawn) was tested. Which Potency did it give?
Answer: Its Potency is active: 35.5 µM.

Question: With `CC(C)(C)OC(=O)N1Cc2ccccc2C[C@H]1C(=O)N1CCC[C@H]1C(=O)O` (Boc-[Tic]-Pro-OH) as the molecule, how does the Potency read?
Answer: The Potency was active: 17.8 µM.

Question: For `O=C(NCC(c1ccc(F)cc1)N1CCOCC1)c1ccc(C(=O)c2ccccc2)cc1` (stereo not drawn), which Potency is on record?
Answer: Its Potency is inconclusive: 89.1 µM [inhibitor, single point].

Question: Which Potency does the source give for `Cc1ccc(NC(=O)c2ccc([N+](=O)[O-])o2)cc1C` here?
Answer: Its Potency is inconclusive: 28.2 µM [inhibitor, partial curve, poor fit].

Question: `COc1ccccc1-n1c(Cc2cccs2)n[nH]c1=S` was tested. Which Potency did it give?
Answer: Its Potency is active: 3.55 µM.

Question: How did the Potency turn out when `Cc1cc(C(=O)COc2cccc(-n3cnnn3)c2)c(C)n1-c1ccccc1` was run?
Answer: The Potency was inconclusive: 50.1 µM [inhibitor, partial curve].

Question: How did the Potency turn out when `Cn1c(=O)c2c(nc(CN3CCC(C(N)=O)CC3)n2Cc2ccccc2Cl)n(C)c1=O` was run?
Answer: The Potency was “inactive”.
